Test results as given in the antibiotic and cytotoxicity screens of Wong et al. (2023).
The list shows a part of the results.

test system: S. aureus RN4220; assay: growth inhibition call (relative growth <= 0.2); conditions: 50 µM

Growth inhibition call, inactive:
COc1ccc(NC(=O)Nc2ccc3c(c2)C(=O)N([C@@H](C)CO)C[C@H](C)[C@@H](CN(C)C(=O)Cc2ccccc2)OCCCC[C@@H](C)O3)cc1
C[C@H]1CN([C@@H](C)CO)C(=O)c2cccc(NC(=O)Nc3cccc4ccccc34)c2O[C@@H]1CN(C)C(=O)Nc1ccc(F)cc1
C[C@H]1CN([C@@H](C)CO)C(=O)c2cc(NS(=O)(=O)c3ccccc3)ccc2O[C@H]1CN(C)S(=O)(=O)c1ccccc1
CCn1[nH]c(N)c2c(=O)[nH]c(=O)cc1-2
C[C@@]1(c2cccs2)CC(c2cccs2)=Nc2ccccc2N1
COc1ccc(-c2coc3cc(OC)ccc3c2=O)c(O)c1
C[C@H](CO)N1C[C@H](C)[C@H](CN(C)S(=O)(=O)c2cccs2)Oc2ccc(NS(=O)(=O)c3ccc(F)cc3)cc2C1=O
Cc1ccc(S(=O)(=O)Nc2ccc3c(c2)CC(=O)N([C@H](C)CO)C[C@@H](C)[C@H](CN(C)Cc2ccc(Cl)c(Cl)c2)O3)cc1
Cc1noc(C)c1S(=O)(=O)Nc1ccc2c(c1)C(=O)N([C@H](C)CO)C[C@H](C)[C@@H](CN(C)S(=O)(=O)c1cn(C)cn1)O2
C[C@H](CO)N1C[C@H](C)[C@H](CN(C)Cc2cccc(C(F)(F)F)c2)Oc2ncc(C#CCN(C)C)cc2C1=O
